# Over roughly 110,000 compounds, “z-score” has its median near -0.1; the highest 2% begin near 2. The list shows a part of the results. The source made the active and inactive calls.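 The calls were made as follows: active = z-score in the third read window above 3 or below -3; inactive = the rest.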
# Target: Metabotropic glutamate receptor 8 (Rattus norvegicus) (UniProt P70579)
# Assay: mGluR8 Gi/Go-coupled signaling modulation – cell-based, rat, thallium flux, HTS, primary screen (AID 488969)
# Details: HEK293 rat mGluR8, GIRK (G protein-gated inwardly rectifying potassium channel) thallium flux, FluoZin2; at 10 µM; stronger effect = higher value; submaximal glutamate (EC20) added with thallium
# Chain of UniProt P70579 (P70579 whole entry, looked up): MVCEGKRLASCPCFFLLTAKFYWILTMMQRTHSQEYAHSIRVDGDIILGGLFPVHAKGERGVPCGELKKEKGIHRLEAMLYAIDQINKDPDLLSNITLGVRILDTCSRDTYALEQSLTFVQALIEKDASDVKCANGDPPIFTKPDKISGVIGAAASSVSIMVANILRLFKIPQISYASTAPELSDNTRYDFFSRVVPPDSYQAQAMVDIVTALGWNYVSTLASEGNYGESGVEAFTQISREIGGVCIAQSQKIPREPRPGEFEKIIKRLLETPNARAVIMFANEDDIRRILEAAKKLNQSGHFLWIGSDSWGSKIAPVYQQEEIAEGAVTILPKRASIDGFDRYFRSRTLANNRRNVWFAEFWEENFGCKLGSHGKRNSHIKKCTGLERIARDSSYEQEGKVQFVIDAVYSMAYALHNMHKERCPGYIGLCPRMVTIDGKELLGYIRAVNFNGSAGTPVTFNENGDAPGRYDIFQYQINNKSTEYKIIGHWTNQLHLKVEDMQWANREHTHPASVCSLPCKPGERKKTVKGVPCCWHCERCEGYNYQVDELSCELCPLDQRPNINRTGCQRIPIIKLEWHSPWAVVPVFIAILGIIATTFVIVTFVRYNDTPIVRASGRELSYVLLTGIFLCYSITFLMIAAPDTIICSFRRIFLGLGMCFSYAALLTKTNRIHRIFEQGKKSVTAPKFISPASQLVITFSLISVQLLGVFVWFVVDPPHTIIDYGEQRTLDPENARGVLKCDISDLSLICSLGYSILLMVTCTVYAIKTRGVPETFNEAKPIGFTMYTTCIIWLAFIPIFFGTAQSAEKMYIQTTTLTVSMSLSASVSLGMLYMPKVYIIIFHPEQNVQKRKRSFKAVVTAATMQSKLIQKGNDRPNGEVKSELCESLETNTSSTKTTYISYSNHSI
row,Compound,z-score
1,Cc1ccc(OCC(=O)NNC(=O)c2cc3ccccc3o2)cc1C,1.04
2,Cc1ccc(S(=O)(=O)N2CC(=NO)C2)cc1,0.818
3,COc1cccc2cc(-c3nnc(SCC(=O)NCc4ccccc4)n3C)oc12,-0.275
4,O=S(=O)(c1ccc(Cl)cc1)N1CCC(O)(c2cccnc2)CC1,-1.28
5,CCOCCCNC(=O)C1CCN(S(=O)(=O)CC)CC1,0.957
6,COc1ccccc1CC(NC(C)=O)C(=O)NC1CCN(c2nnnn2-c2ccccc2)CC1 (stereo not given),-0.549
7,O=C1NCC(COCC2CC=CCC2)O1 (stereo not given),-0.33
8,CCCOc1ccc(N2C(=O)CC(S/C(N)=N/N=C(\C)c3cccs3)C2=O)cc1 (stereo not given),-0.321
9,Cc1ccc(S(=O)(=O)N(CC(=O)N/N=C/c2cccc(Cl)c2)c2cccc3cccnc23)cc1,-0.51
10,COc1ccc(CNc2nc(-c3cccnc3)nn2C(=O)c2ccco2)cc1,active: 9.48
11,C=CCNC(=S)NC1CC(C)(C)NC(C)(C)C1,0.609
12,COc1ccc(C2NC(=O)NC(O)(C(F)(F)F)C2C(=O)c2ccccc2)cc1OC (stereo not given),-0.119
13,CC(O)(CS(=O)(=O)Cc1cccc(C(F)(F)F)c1)C(=O)Nc1cccc(C(F)(F)F)c1 (stereo not given),-0.0329
14,Cc1cc(Cl)c(S(=O)(=O)NC(C)C)cc1OCC(N)=O,-0.15
15,COc1ccccc1N1CCN(CC(O)c2ccc3cc[nH]c3c2)CC1 (stereo not given),-1.83
16,O=C(Oc1ccc2[nH]cc(CCN3C(=O)c4ccccc4C3=O)c2c1)c1ccco1,0.567
17,CC(C)(C)OC(=O)N1Cc2ccccc2C[C@H]1C(=O)O,-0.202
18,CCc1ccccc1NC1=NCC(=O)N1Cc1ccc2c(c1)OCO2,-0.665
19,CC(O)c1cc2c(cc1NC(=O)c1cnn3c1NC(c1ccco1)CC3C(F)(F)F)OCO2 (stereo not given),0.0106
20,CN(c1ccc(OCC(=O)Nc2nc(-c3ccccc3)cs2)cc1)S(=O)(=O)c1ccc(F)cc1,-0.22
21,CCOC(=O)N1CCC(N(CCN(C)C)C(=S)Nc2cc(C)ccc2C)CC1,0.0331
22,COc1ccccc1Cn1c(/C=C/c2ccccc2)nc2ccccc21,-0.184
23,Cc1cc2c(c(=O)n1Cc1cccnc1)C(c1cccs1)C(C#N)=C(N)O2 (stereo not given),-0.39
24,CC1=C(C(=O)OC(C)C)C(c2cccs2)N2C(=O)CCSC2=N1 (stereo not given),-1.69

row,Compound,z-score
1,OCCN1CCOCCN(CCO)CCN(CCO)CC1,-0.593
2,COc1cccc(-c2nnc(SCC(=O)Nc3cc(C)on3)o2)c1,-1.2
3,Cc1ccc(NC(=O)/C(C#N)=C/c2ccc(C)s2)c(C)c1,-0.194
4,Fc1ccc(N/N=C/c2ccncc2)c(F)c1,-0.159
5,Cc1ccc(-n2c(Cc3cccn3C)nnc2SCC(N)=O)cc1,0.107
6,O=C(CCCSc1nnc(-c2cccs2)n1CC1CCCO1)c1ccccc1 (stereo not given),-0.131
7,CCCn1c(NCc2ccccn2)nc2ccccc21,-0.233
8,CN=C1C([N+](=O)[O-])=CC=C2C1=NC1(CCCCC1)N2O,0.118
9,Cc1cc(-c2ccc(/C=N/n3cnnc3)o2)c([N+](=O)[O-])cc1C,-2.76
10,CCOC(=O)NS(=O)(=O)c1ccc(CCNC(=O)c2cc(C)on2)cc1,-0.044
11,CCOc1ccc(/C=N/NC(N)=S)cc1,-0.00516
12,CC(C)n1c(SCCCc2ccccc2)nc2c1c(=O)[nH]c(=O)n2C,-0.172
13,CCCSc1cc(=O)n(-c2ccccc2)nc1C(=O)OCC,-0.0657
14,O=C(NCc1cccs1)c1cccc(N2CCCC2=O)c1,0.00525
15,O=C(NCC1CCCO1)c1ccc2ccccc2n1 (stereo not given),0.0317
16,Cc1nc2ccccc2nc1OCc1ccccc1,-0.0133
17,O=C(c1cc2ccccc2oc1=O)N(Cc1cccs1)Cc1cccs1,-0.503
18,Cc1ccc2nsnc2c1S(=O)(=O)N(Cc1ccco1)Cc1cc2ccc(C)c(C)c2[nH]c1=O,0.0235
19,CCN(CC)C(=O)N1c2ccccc2CC(N(CC)CC)c2ccccc21 (stereo not given),0.421
20,COc1ccc(Cc2nc(-c3ccc(NC(=O)c4cccnc4)cc3)no2)cc1,-0.000464
21,O=C(C1CCN(S(=O)(=O)c2cccc3cccnc23)CC1)N1CCc2ccccc21,-0.168
22,COc1ccccc1NC(=S)N1CCN(Cc2ccccc2)CC1,-0.233
23,CCN(CC)C(=O)Oc1ccc(Cl)c2ccccc12,-0.211
24,COc1ccnc(Oc2ccccc2)c1C(=O)N/C=N/OCc1ccc(F)cc1Cl,-0.167

row,Compound,z-score
1,Cc1ccc(Cn2ncc3c(N4CCN(Cc5ccc(Cl)cc5)CC4)ncnc32)cc1,-1.19
2,Cc1ccc(C)c(/C=N/NC(=S)NCCc2ccccc2)c1,1.17
3,Cc1ccc2c(c1)C(C)(C)[C@]1(C)NC(=O)CCN21,-0.00344
4,COc1ccc(NC(=O)C2CCN(c3nnnn3-c3ccccc3)CC2)cc1,0.337
5,O=[N+]([O-])c1cc(-c2ccc(/C=N/c3nc4ccccn4c3-c3ccco3)o2)ccc1Cl,0.0934
6,Cc1nc2ncnn2c(C)c1CCC(=O)NC(C)CCc1ccco1 (stereo not given),0.104
7,Cc1ccc(OCC(=O)N2CCN(C(=O)c3cccs3)CC2)cc1,-0.388
8,O=C1CCC/C(=N\NC(=O)c2ccc(COc3cccc4cccnc34)cc2)C1,-0.787
9,CCOc1ccc(C(=O)OC2CCN(C)CC2)cc1,0.105
10,Cc1cccc(C(=O)NC2CCN(C(=S)NCc3ccco3)CC2)c1,-0.0881
11,O=C(CNS(=O)(=O)c1ccc(Br)s1)N1CCN(C(=O)c2ccco2)CC1,0.666
12,CSc1ccc(/C=N/NC(=O)CN2CCN(Cc3ccc(Cl)cc3)CC2)cc1,-0.189
13,O=C(CSc1nc(-c2ccccc2)c(-c2ccccc2)o1)Nc1nnc(-c2ccccc2)s1,0.0761
14,Cc1cccc(NC(=O)COC(=O)c2cccc3c2C(=O)c2ccccc2C3=O)c1C,-0.309
15,Nc1c(C(=O)Nc2ccc(S(=O)(=O)N3CCCC3)cc2)sc2nc3ccc(OC(F)(F)F)cc3cc12,-0.057
16,O=C(COC(=O)C(Cc1ccccc1)NC(=O)c1ccco1)NC1CC1 (stereo not given),-0.319
17,Nc1nonc1NC(=O)NN=C1CCCCC1,0.00773
18,Cc1ccc(N/N=C(\Cc2nc3ccccc3[nH]2)c2ccccc2)cc1,-0.101
19,COC(=O)C1=C(C)NC(=O)CC1c1ccc(F)c(Br)c1 (stereo not given),-0.419
20,O=C(Nc1cc(C(F)(F)F)ccc1-n1cnc2ccccc21)c1ccccc1,0.55
21,CCCCS(=O)(=O)NC1=NCN(CCO)CN1,-0.0897
22,CN(C1CCCCC1)S(=O)(=O)c1ccc(NC(=O)CCC(=O)O)cc1,-0.335
